The supplement of paper PMC8728848
The list shows a part of the results.

Key:
Assay in all cases: glycan array binding signal (z-score within array); higher = stronger binding
Conditions in all cases: glycan notation: IUPAC condensed, linker removed
[1] = molecular target: Gal(b1-4)GlcNAc(b1-3)Gal(b1-4)GlcNAc(b1-6)[Gal(b1-3)]GalNAc
Outline: (§1)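 From the Consortium for Functional Glycomics database, 3228 arrays were curated, keeping only those whose protein sequence was available. Binding is given as a within-array Z-score averaged across arrays sharing a protein sequence and across linkers. Negative Z-scores can be read as non-binding.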

[2] = molecular target: Gal(b1-4)GlcNAc(b1-3)Gal(b1-4)[Fuc(a1-3)]GlcNAc(b1-3)Gal(b1-4)[Fuc(a1-3)]GlcNAc
Outline: as §1

[3] = molecular target: Gal(b1-4)GlcNAc(b1-3)GalNAc
Outline: as §1

[4] = molecular target: Gal(b1-4)GlcNAc(b1-3)[Fuc(a1-3)GlcNAc(b1-6)]Gal(b1-4)Glc
Outline: as §1

[5] = molecular target: Gal(b1-4)GlcNAc(b1-3)[Gal(b1-4)GlcNAc(b1-6)]Gal(b1-4)GlcNAc
Outline: as §1

[6] = molecular target: Gal(b1-4)GlcNAc(b1-3)[GlcNAc(b1-6)]Gal(b1-4)GlcNAc
Outline: as §1

[7] = molecular target: Gal(b1-4)GlcNAc(b1-6)Gal(b1-4)GlcNAc
Outline: as §1

[8] = molecular target: Gal(b1-4)GlcNAc(b1-6)GalNAc
Outline: as §1

[9] = molecular target: Gal(b1-4)GlcNAc(b1-6)[Gal(b1-3)]GalNAc
Outline: as §1

[10] = molecular target: Gal(b1-4)GlcNAc(b1-6)[Gal(b1-4)GlcNAc(b1-3)]GalNAc
Outline: as §1

Gal(b1-4)GlcNAc6P = molecular target: Gal(b1-4)GlcNAc6P
Outline: as §1

Gal(b1-6)Gal = molecular target: Gal(b1-6)Gal
Outline: as §1

Gal3S(b1-3)GalNAc = molecular target: Gal3S(b1-3)GalNAc
Outline: as §1

Gal3S(b1-3)GlcNAc = molecular target: Gal3S(b1-3)GlcNAc
Outline: as §1

[11] = molecular target: Gal3S(b1-3)[Fuc(a1-4)]GlcNAc
Outline: as §1

Gal3S(b1-4)Glc = molecular target: Gal3S(b1-4)Glc
Outline: as §1

Gal3S(b1-4)Glc6S = molecular target: Gal3S(b1-4)Glc6S
Outline: as §1

Gal3S(b1-4)GlcNAc = molecular target: Gal3S(b1-4)GlcNAc
Outline: as §1

[12] = molecular target: Gal3S(b1-4)[Fuc(a1-3)]Glc6S
Outline: as §1

[13] = molecular target: Gal3S(b1-4)[Fuc(a1-3)]GlcNAc
Outline: as §1

[14] = molecular target: Gal3S(b1-4)[Fuc(a1-3)]GlcNAc6S
Outline: as §1

Gal3S4S(b1-4)GlcNAc = molecular target: Gal3S4S(b1-4)GlcNAc
Outline: as §1

Gal3S6S(b1-4)GlcNAc = molecular target: Gal3S6S(b1-4)GlcNAc
Outline: as §1

Gal3S6S(b1-4)GlcNAc6S = molecular target: Gal3S6S(b1-4)GlcNAc6S
Outline: as §1

Gal4S(b1-4)GlcNAc = molecular target: Gal4S(b1-4)GlcNAc
Outline: as §1

Gal4S6S(b1-4)GlcNAc = molecular target: Gal4S6S(b1-4)GlcNAc
Outline: as §1

Gal6P(b1-4)GlcNAc = molecular target: Gal6P(b1-4)GlcNAc
Outline: as §1

Gal6S(b1-3)GlcNAc = molecular target: Gal6S(b1-3)GlcNAc
Outline: as §1

Gal6S(b1-3)GlcNAc6S = molecular target: Gal6S(b1-3)GlcNAc6S
Outline: as §1

Gal6S(b1-4)Glc = molecular target: Gal6S(b1-4)Glc
Outline: as §1

Gal6S(b1-4)Glc6S = molecular target: Gal6S(b1-4)Glc6S
Outline: as §1

Gal6S(b1-4)GlcNAc = molecular target: Gal6S(b1-4)GlcNAc
Outline: as §1

Gal6S(b1-4)GlcNAc6S = molecular target: Gal6S(b1-4)GlcNAc6S
Outline: as §1

GalNAc(a1-3)Gal = molecular target: GalNAc(a1-3)Gal
Outline: as §1

GalNAc(a1-3)GalNAc = molecular target: GalNAc(a1-3)GalNAc
Outline: as §1

[15] = molecular target: GalNAc(a1-3)GalNAc(b1-3)Gal(a1-4)Gal(b1-4)Glc
Outline: as §1

[16] = molecular target: GalNAc(a1-3)GalNAc(b1-3)Gal(a1-4)Gal(b1-4)GlcNAc
Outline: as §1

GalNAc(b1-3)Gal = molecular target: GalNAc(b1-3)Gal
Outline: as §1

[17] = molecular target: GalNAc(b1-3)Gal(a1-4)Gal(b1-4)GlcNAc
Outline: as §1

[18] = molecular target: GalNAc(b1-3)Gal(a1-4)Gal(b1-4)GlcNAc(b1-3)Gal(b1-4)Glc
Outline: as §1

[19] = molecular target: GalNAc(b1-3)Gal(a1-6)Gal(b1-4)Glc
Outline: as §1

GalNAc(b1-3)GalNAc = molecular target: GalNAc(b1-3)GalNAc
Outline: as §1

GalNAc(b1-3)GlcNAc = molecular target: GalNAc(b1-3)GlcNAc
Outline: as §1

GalNAc(b1-4)Gal(b1-4)Glc = molecular target: GalNAc(b1-4)Gal(b1-4)Glc
Outline: as §1

GalNAc(b1-4)GlcNAc = molecular target: GalNAc(b1-4)GlcNAc
Outline: as §1

B1: rEtpA (Escherichia coli) (protein)
chain: MNRIYKLKFDKRRNELVVVSEITTGVGNAKATGSVEGEKSPRRGVRAMALSLLSGMMIMAHPAMSANLPTGGQIVAGSGSIQTPSGNQMNIHQNSQNMVANWNSFDIGKGNTVQFDQPSSSAVALNRVVGGGESQIMGNLKANGQVFLVNPNGVLFGEGASVSTSGFVASTRDIKNDDFMNRRYTFSGGQKAGAAIVNQGELTTNAGGYIVLAADRVSNSGTIRTPGGKTVLAASERITLQLDNGGLMSVQVTGDVVNALVENRGLVSARDGQVYLTALGRGMLMNTVLNVSGVVEASGMHRQDGNIVLDGGDSGVVHLSGTLQADNASGQGGKVVVQGKNILLDKGSNITATGGQGGGEVYVGGGWQGKDSNIRNADKVVMQGGARIDVSATQQGNGGTAVLWSDSYTNFHGQISAKGGETGGNGGRVETSSHGNLQAFGTVSASAKKGKAGNWLLDSADITIVNGSNVSKTETTQSPPHTQFAPTAAGSAVSNTSINNRLNNGTSVTILTHRTRTGTAQGGNITVNAAINKSNGSDVNLTLQAGGNITVNNSITSTEGKLNVNLSGARTSNGSITISNNANITTNGGDITVGTTNTSNRVNISINNTTLNASNGNIQLTGTGTDSGILFAGNNRLTASNIALTGNSTSGNAINLTGTATLNATNNITLTGSSTSGNAINLKGNNTLTASNITLTGESTSGNAINLTDTTGTTTLNATNNITMQGTRVQIKHSNITAGNFALNATVAGSEISNTTLTATNNINLAAKTNSASSGVYLKDARITSTNGSITANGTATANGKATHLDGNVTLNASNGRIKLTGNGHGSASGILFAGNNRLTASNIALTGNSTSGNAINLTGTATLNATNDITLTGSSTSGNAINLTGTATLNATNNITLTGSSTSGNAINLKGNNTLTASNITLTGESTSGNAINLTDTTGTTTLNATNNITMQGTRVQIKHSNITAGNFALNATVAGSEISNTTLTATNNINLAAKTNSASSGVYLKDARITSTNGSITANGTATANGKATHLDGNVTLNASNGRIKLTGNGHGSASGILFAGNNRLTASNIALTGNSTSGNAINLTGTATLNATNDITLTGSSTSGNAINLTGTATLNATNNITLTGSSTSGNAINLKGNNTLTASNITLTGESTSGNAINLTDTTGTTTLNATNNITMQGTRVQIKHSNITAGNFALNATVAGSEISNTTLTATNNINLAAKTNSASSGVYLKDARITSTNGSITANGTATANGKATHLDGNVTLNASNGRIKLTGNGHGSASGILFAGNNRLTASNIALTGNSTSGNAINLTGTATLNATNDITLTGSSTSGNAINLTGTATLNATNNITLTGSSTSGNAINLKGNNTLTASNITLTGESTSGNAINLTDTTGTTTLNATNNITMQGTRVQIKHSNITAGNFALNATVAGSEISNTTLTATNNINLAAKTNSASSGVYLKDARITSTNGSITTNGTATANGKATHLDGNVTLNASNGRIKLTGNGHGSASGILFAGNNRLTASNIALTGNSTSGNAINLTGTATLNATNDITLTGSSTSGNAINLTGTATLNATNNITLTGSSTSGNAINLKGNNTLTASNITLTGESTSGNAINLTDTTGTTTLNATNNITMQGTRVQIKHSNITAGNFALNATVAGSEISNTTLTATNNINLAAKTNSASSGVYLKDARITSTNGSITANGTAPANDNATYLDGNVTLNASNGSIKLTGNGNGSTSGILFAGNNTLTASNITLTGNSEVYWQKLGPEQKLISEEDLNSAVDHHHHHH
glycan array binding signal (z-score) [1]: -0.384 | glycan array binding signal (z-score) [2]: -0.365 | glycan array binding signal (z-score) [3]: -0.234 | glycan array binding signal (z-score) [4]: -0.328 | glycan array binding signal (z-score) [5]: -0.282 | glycan array binding signal (z-score) [6]: -0.382 | glycan array binding signal (z-score) [7]: -0.317 | glycan array binding signal (z-score) [8]: -0.21 | glycan array binding signal (z-score) [9]: -0.386 | glycan array binding signal (z-score) [10]: -0.27 | glycan array binding signal (z-score) (Gal(b1-4)GlcNAc6P): -0.385 | glycan array binding signal (z-score) (Gal(b1-6)Gal): 0.048 | glycan array binding signal (z-score) (Gal3S(b1-3)GalNAc): 0.07 | glycan array binding signal (z-score) (Gal3S(b1-3)GlcNAc): 0.314 | glycan array binding signal (z-score) [11]: -0.228 | glycan array binding signal (z-score) (Gal3S(b1-4)Glc): 0.184 | glycan array binding signal (z-score) (Gal3S(b1-4)Glc6S): 0.356 | glycan array binding signal (z-score) (Gal3S(b1-4)GlcNAc): -0.045 | glycan array binding signal (z-score) [12]: 0.805 | glycan array binding signal (z-score) [13]: -0.202 | glycan array binding signal (z-score) [14]: 0.771 | glycan array binding signal (z-score) (Gal3S4S(b1-4)GlcNAc): -0.041 | glycan array binding signal (z-score) (Gal3S6S(b1-4)GlcNAc): -0.028 | glycan array binding signal (z-score) (Gal3S6S(b1-4)GlcNAc6S): 0.444 | glycan array binding signal (z-score) (Gal4S(b1-4)GlcNAc): 1.38 | glycan array binding signal (z-score) (Gal4S6S(b1-4)GlcNAc): -0.189 | glycan array binding signal (z-score) (Gal6P(b1-4)GlcNAc): -0.372 | glycan array binding signal (z-score) (Gal6S(b1-3)GlcNAc): 0.534 | glycan array binding signal (z-score) (Gal6S(b1-3)GlcNAc6S): -0.365 | glycan array binding signal (z-score) (Gal6S(b1-4)Glc): 1.63 | glycan array binding signal (z-score) (Gal6S(b1-4)Glc6S): 0.346 | glycan array binding signal (z-score) (Gal6S(b1-4)GlcNAc): 0.011 | glycan array binding signal (z-score) (Gal6S(b1-4)GlcNAc6S): 0.353 | glycan array binding signal (z-score) (GalNAc(a1-3)Gal): 0.571 | glycan array binding signal (z-score) (GalNAc(a1-3)GalNAc): 0.181 | glycan array binding signal (z-score) [15]: -0.248 | glycan array binding signal (z-score) [16]: -0.107 | glycan array binding signal (z-score) (GalNAc(b1-3)Gal): -0.191 | glycan array binding signal (z-score) [17]: -0.378 | glycan array binding signal (z-score) [18]: -0.297 | glycan array binding signal (z-score) [19]: -0.156 | glycan array binding signal (z-score) (GalNAc(b1-3)GalNAc): -0.252 | glycan array binding signal (z-score) (GalNAc(b1-3)GlcNAc): -0.214 | glycan array binding signal (z-score) (GalNAc(b1-4)Gal(b1-4)Glc): 0.679 | glycan array binding signal (z-score) (GalNAc(b1-4)GlcNAc): -0.268
